{"source": "the supplement of paper PMC5499739", "note": "In all, about 16,000 sequences were measured (“Z-score”: median about -0.37, highest 2% from about 3.1 on). The list shows a part of the results.", "data": [{"tested_on": "RBM10 RRM1-ZnF-RRM2 (GST-tagged construct)", "test": "RNAcompete 7-mer binding Z-score; higher = stronger binding preference", "how_it_was_run": "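Bound RNA was identified by microarray hybridisation after GST-tagged RBM10 constructs (20 pmol) had been mixed with 1.5 nmol of a designed pool of 241 399 RNAs up to 41 nt, transcribed from microarray-derived DNA templates. Binding ran for 30 min at 4°C in 1 ml Hepes pH 7.8 buffer with KCl, NaCl, glycerol, DTT, BSA and glutathione Sepharose beads, with four 2-min washes at 4°C afterwards. For every heptamer motif, a one-sided Z-score for enrichment was computed across the probes that contained it.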", "values": [{"sequence": "AUACUCG", "RNAcompete 7-mer binding Z-score": -0.668}, {"sequence": "AAGUAAG", "RNAcompete 7-mer binding Z-score": 0.927}, {"sequence": "CACGGGG", "RNAcompete 7-mer binding Z-score": 2.77}, {"sequence": "UAUAAUA", "RNAcompete 7-mer binding Z-score": -0.471}, {"sequence": "CACGAAC", "RNAcompete 7-mer binding Z-score": -0.621}, {"sequence": "AUAGCGC", "RNAcompete 7-mer binding Z-score": -0.315}, {"sequence": "CGCUGGC", "RNAcompete 7-mer binding Z-score": -0.504}, {"sequence": "UUACGUC", "RNAcompete 7-mer binding Z-score": -0.595}, {"sequence": "UCUAUUG", "RNAcompete 7-mer binding Z-score": -0.788}, {"sequence": "CUUCCCU", "RNAcompete 7-mer binding Z-score": -0.876}, {"sequence": "UUAUUGC", "RNAcompete 7-mer binding Z-score": -0.661}, {"sequence": "UAGAAGU", "RNAcompete 7-mer binding Z-score": 0.319}, {"sequence": "CUGGCGU", "RNAcompete 7-mer binding Z-score": -0.213}, {"sequence": "ACCGACG", "RNAcompete 7-mer binding Z-score": -0.296}, {"sequence": "CCGCUCA", "RNAcompete 7-mer binding Z-score": -0.734}, {"sequence": "UGCUAAA", "RNAcompete 7-mer binding Z-score": -0.42}, {"sequence": "CUUCACA", "RNAcompete 7-mer binding Z-score": -0.846}, {"sequence": "AACAGGG", "RNAcompete 7-mer binding Z-score": 3.73}, {"sequence": "CCAUACG", "RNAcompete 7-mer binding Z-score": -0.606}, {"sequence": "CCUGUUU", "RNAcompete 7-mer binding Z-score": -0.974}, {"sequence": "UUCUAAU", "RNAcompete 7-mer binding Z-score": -0.723}, {"sequence": "UUGGGUA", "RNAcompete 7-mer binding Z-score": 1.95}, {"sequence": "UAGUUGA", "RNAcompete 7-mer binding Z-score": 0.0859}, {"sequence": "GGACUGA", "RNAcompete 7-mer binding Z-score": 0.814}, {"sequence": "CCGCUAU", "RNAcompete 7-mer binding Z-score": -0.872}, {"sequence": "AGGCGUC", "RNAcompete 7-mer binding Z-score": 0.0495}, {"sequence": "CCCAAUU", "RNAcompete 7-mer binding Z-score": -0.744}, {"sequence": "AUGGGAA", "RNAcompete 7-mer binding Z-score": 4.29}, {"sequence": "GGCGAUG", "RNAcompete 7-mer binding Z-score": 2.16}, {"sequence": "CCAGACA", "RNAcompete 7-mer binding Z-score": -0.526}, {"sequence": "UUCGCAG", "RNAcompete 7-mer binding Z-score": -0.366}, {"sequence": "CAGGCAG", "RNAcompete 7-mer binding Z-score": 1.17}, {"sequence": "AUCACCC", "RNAcompete 7-mer binding Z-score": -0.752}, {"sequence": "UGCGUCA", "RNAcompete 7-mer binding Z-score": -0.475}, {"sequence": "AGAUAGC", "RNAcompete 7-mer binding Z-score": -0.271}, {"sequence": "ACUACGU", "RNAcompete 7-mer binding Z-score": -0.471}, {"sequence": "UCUCUCA", "RNAcompete 7-mer binding Z-score": -0.836}, {"sequence": "AACCAGU", "RNAcompete 7-mer binding Z-score": -0.235}, {"sequence": "ACGCAAC", "RNAcompete 7-mer binding Z-score": -0.479}, {"sequence": "GUUGGAC", "RNAcompete 7-mer binding Z-score": 1.04}, {"sequence": "CUAAUAU", "RNAcompete 7-mer binding Z-score": -0.533}, {"sequence": "AGUCUAG", "RNAcompete 7-mer binding Z-score": -0.067}, {"sequence": "UUCGGAG", "RNAcompete 7-mer binding Z-score": 0.188}, {"sequence": "UGUUAUG", "RNAcompete 7-mer binding Z-score": -0.38}, {"sequence": "UGAACGC", "RNAcompete 7-mer binding Z-score": -0.0925}, {"sequence": "ACACGUC", "RNAcompete 7-mer binding Z-score": -0.657}, {"sequence": "GAUUUAA", "RNAcompete 7-mer binding Z-score": -0.333}, {"sequence": "GCAGGCA", "RNAcompete 7-mer binding Z-score": 0.833}, {"sequence": "CAUUCUA", "RNAcompete 7-mer binding Z-score": -0.821}, {"sequence": "GGUACGG", "RNAcompete 7-mer binding Z-score": 2.47}, {"sequence": "CUUAUCU", "RNAcompete 7-mer binding Z-score": -0.839}, {"sequence": "UUGAUUU", "RNAcompete 7-mer binding Z-score": -0.602}, {"sequence": "GAGAUUA", "RNAcompete 7-mer binding Z-score": 0.385}, {"sequence": "UCUAGCA", "RNAcompete 7-mer binding Z-score": -0.712}, {"sequence": "AUCACGC", "RNAcompete 7-mer binding Z-score": -0.442}, {"sequence": "GCUUGUC", "RNAcompete 7-mer binding Z-score": -0.821}, {"sequence": "UAUUCUC", "RNAcompete 7-mer binding Z-score": -0.672}, {"sequence": "AGCCCUA", "RNAcompete 7-mer binding Z-score": -0.828}, {"sequence": "CCUAUUU", "RNAcompete 7-mer binding Z-score": -0.996}, {"sequence": "AAAUUCC", "RNAcompete 7-mer binding Z-score": -0.737}, {"sequence": "UGCGAAC", "RNAcompete 7-mer binding Z-score": 0.0131}, {"sequence": "AUCCUUA", "RNAcompete 7-mer binding Z-score": -0.697}, {"sequence": "GACCCAC", "RNAcompete 7-mer binding Z-score": -0.803}, {"sequence": "GCUUACC", "RNAcompete 7-mer binding Z-score": -0.646}, {"sequence": "AUCGAAC", "RNAcompete 7-mer binding Z-score": -0.26}, {"sequence": "UCACUGC", "RNAcompete 7-mer binding Z-score": -0.785}, {"sequence": "GAACGGG", "RNAcompete 7-mer binding Z-score": 4.29}, {"sequence": "GCUGUCA", "RNAcompete 7-mer binding Z-score": -0.628}, {"sequence": "AACCCAU", "RNAcompete 7-mer binding Z-score": -0.839}, {"sequence": "GUGAACU", "RNAcompete 7-mer binding Z-score": 0.173}, {"sequence": "CCGCACC", "RNAcompete 7-mer binding Z-score": -0.664}, {"sequence": "AGAGGAU", "RNAcompete 7-mer binding Z-score": 1.34}, {"sequence": "ACCCAUA", "RNAcompete 7-mer binding Z-score": -0.843}, {"sequence": "UAGCUAG", "RNAcompete 7-mer binding Z-score": -0.216}, {"sequence": "GACAGCC", "RNAcompete 7-mer binding Z-score": -0.5}, {"sequence": "CAACGCA", "RNAcompete 7-mer binding Z-score": -0.5}, {"sequence": "UGUGAGC", "RNAcompete 7-mer binding Z-score": 0.184}, {"sequence": "UCGUAAC", "RNAcompete 7-mer binding Z-score": -0.486}, {"sequence": "GUGCUAU", "RNAcompete 7-mer binding Z-score": -0.202}, {"sequence": "CUCUCUC", "RNAcompete 7-mer binding Z-score": -0.763}, {"sequence": "CUAAGCG", "RNAcompete 7-mer binding Z-score": -0.442}, {"sequence": "GAGUUGG", "RNAcompete 7-mer binding Z-score": 2.91}, {"sequence": "AGCCAUG", "RNAcompete 7-mer binding Z-score": -0.464}, {"sequence": "AAAGGAA", "RNAcompete 7-mer binding Z-score": 3.51}, {"sequence": "UCAGGCU", "RNAcompete 7-mer binding Z-score": -0.246}, {"sequence": "AAUCUAA", "RNAcompete 7-mer binding Z-score": -0.515}, {"sequence": "GUGCGAC", "RNAcompete 7-mer binding Z-score": 0.294}, {"sequence": "CUUUGAG", "RNAcompete 7-mer binding Z-score": -0.664}, {"sequence": "AACACCG", "RNAcompete 7-mer binding Z-score": -0.173}, {"sequence": "GCGGAUG", "RNAcompete 7-mer binding Z-score": 1.64}, {"sequence": "UCCGCUG", "RNAcompete 7-mer binding Z-score": -0.755}, {"sequence": "CGGAUGG", "RNAcompete 7-mer binding Z-score": 1.87}, {"sequence": "UACUUUA", "RNAcompete 7-mer binding Z-score": -0.948}, {"sequence": "CUCCUGU", "RNAcompete 7-mer binding Z-score": -0.876}, {"sequence": "ACAUAUU", "RNAcompete 7-mer binding Z-score": -0.646}, {"sequence": "GCCUCUG", "RNAcompete 7-mer binding Z-score": -0.781}, {"sequence": "CCCGUGG", "RNAcompete 7-mer binding Z-score": 0.312}, {"sequence": "GAAUAAU", "RNAcompete 7-mer binding Z-score": -0.176}, {"sequence": "CAGAGGU", "RNAcompete 7-mer binding Z-score": 1.6}, {"sequence": "AGCUCUU", "RNAcompete 7-mer binding Z-score": -0.836}]}]}
